# Data published in a collection of fitness landscapes (doi:10.1038/s41467-024-54723-y).
# The full ranking holds about 18,000 sequences; the median of “TetR repression strength (sort-seq, GFP reporter)” is about 0.23, and the highest 2% start at about 0.68. The list shows a part of the results.
# Target: TetR (class B, Tn10) (UniProt P04483)
# Experiment: TetR repression strength (sort-seq, GFP reporter) (relative to tetO2 = 1); higher = stronger repression
# Conditions: E. coli
# Outline: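 Repression strength was calculated by subtracting the read-weighted mean bin from the top bin index plus one and dividing by the unaltered operator's value. The plasmid library was low-copy in E. coli SIG10-MAX, with eight randomized operator positions between a constitutive promoter and sfGFP and constitutive TetR. Cultures grew 5 h at 37 °C in LB containing 50 µg/mL chloramphenicol before 10^6 cells were sorted by FACS into 13 fluorescence bins, each sequenced on Illumina. Three independent transformations were averaged for members having ≥30 reads in all replicates and a CV ≤0.5.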
# Sequence of UniProt P04483 (P04483 whole entry): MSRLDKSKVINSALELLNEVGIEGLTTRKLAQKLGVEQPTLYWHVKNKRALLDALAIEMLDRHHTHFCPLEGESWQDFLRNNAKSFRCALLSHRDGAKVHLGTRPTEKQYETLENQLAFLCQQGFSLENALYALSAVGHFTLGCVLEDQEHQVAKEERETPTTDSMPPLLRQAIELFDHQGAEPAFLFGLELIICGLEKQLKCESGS
row,Sequence,TetR repression strength
1,TCCCCTACAGTAGTAGAGA,0.0811
2,TCCCCGAAAGTATTCGAGA,0.0399
3,TCCCGAAAAGTATGGGAGA,0.268
4,TCCCATGCAGTCAATGAGA,0.146
5,TCCCTGACAGTGTGCGAGA,0.39
6,TCCCGTTGAGTGTGTGAGA,0.251
7,TCCCATCGAGTAATAGAGA,0.319
8,TCCCGACGAGTTTGTGAGA,0.161
9,TCCCGGTCAGTCTTTGAGA,0.165
10,TCCCCTTCAGTAGCGGAGA,0.344
11,TCCCAGGCAGTAGGGGAGA,0.203
12,TCCCATATAGTCTACGAGA,0.298
13,TCCCGTCGAGTGCAGGAGA,0.0421
14,TCCCGGTGAGTCCACGAGA,0.261
15,TCCCGTGGAGTCTTGGAGA,0.207
16,TCCCAAACAGTGTTGGAGA,0.236
17,TCCCATTGAGTTGCCGAGA,0.24
18,TCCCTTACAGTGCTAGAGA,0.207
19,TCCCAAGCAGTCCGGGAGA,0.183
20,TCCCTGACAGTGGAGGAGA,0.18
21,TCCCCCGAAGTGATCGAGA,0.41
22,TCCCGGGAAGTCATGGAGA,0.154
23,TCCCGGATAGTGTTCGAGA,0.0981
24,TCCCTACCAGTTTCAGAGA,0.31
25,TCCCTCTAAGTGGGAGAGA,0.0484
26,TCCCGACGAGTGGGAGAGA,0.183

row,Sequence,TetR repression strength
1,TCCCAGAAAGTGACGGAGA,0.0499
2,TCCCCGTCAGTTGCGGAGA,0.0612
3,TCCCGGCGAGTCGTGGAGA,0.227
4,TCCCTAAAAGTTCGAGAGA,0.226
5,TCCCTATGAGTCCAAGAGA,0.267
6,TCCCTTATAGTCAGTGAGA,0.452
7,TCCCGGACAGTTCTTGAGA,0.298
8,TCCCAAGAAGTTAGGGAGA,0.207
9,TCCCTCGTAGTATTAGAGA,0.233
10,TCCCAAAGAGTGTGTGAGA,0.123
11,TCCCGGGTAGTGAGAGAGA,0.179
12,TCCCGTGCAGTGGGTGAGA,0.148
13,TCCCGTCCAGTTCTAGAGA,0.276
14,TCCCTTACAGTTCCAGAGA,0.363
15,TCCCTCGGAGTGGGCGAGA,0.119
16,TCCCGATTAGTGGACGAGA,0.237
17,TCCCGGAGAGTTTCTGAGA,0.191
18,TCCCTACGAGTCTCAGAGA,0.197
19,TCCCTCCTAGTGAACGAGA,0.24
20,TCCCGGCTAGTGTAGGAGA,0.405
21,TCCCGTGCAGTGCGGGAGA,0.291
22,TCCCTTACAGTCAGGGAGA,0.207
23,TCCCGACGAGTTGGGGAGA,0.139
24,TCCCGCTGAGTCAAGGAGA,0.279
25,TCCCGGGCAGTAAAGGAGA,0.248
26,TCCCATCCAGTGAATGAGA,0.353

row,Sequence,TetR repression strength
1,TCCCGGTTAGTATCTGAGA,0.284
2,TCCCATGTAGTGACTGAGA,0.242
3,TCCCGCGAAGTCGCAGAGA,0.131
4,TCCCATTCAGTACAGGAGA,0.47
5,TCCCCGAAAGTAGGGGAGA,0.244
6,TCCCTCCCAGTTATCGAGA,0.34
7,TCCCGGTGAGTACTAGAGA,0.343
8,TCCCAGGTAGTCGAGGAGA,0.464
9,TCCCTGGTAGTGTTAGAGA,0.216
10,TCCCTTTTAGTCCCGGAGA,0.311
11,TCCCCATCAGTACCTGAGA,0.548
12,TCCCTGAGAGTGCGTGAGA,0.232
13,TCCCGGTGAGTTGTGGAGA,0.222
14,TCCCGGCGAGTGGGCGAGA,0.158
15,TCCCTAATAGTTATTGAGA,0.372
16,TCCCCTACAGTAACCGAGA,0.518
17,TCCCATCAAGTACCGGAGA,0.151
18,TCCCTTCAAGTCGGGGAGA,0.207
19,TCCCGATCAGTCATCGAGA,0.477
20,TCCCAGTAAGTATACGAGA,0.308
21,TCCCTTTTAGTTCTGGAGA,0.207
22,TCCCTCGGAGTGTAGGAGA,0.113
23,TCCCGTGGAGTGCGTGAGA,0.264
24,TCCCGACGAGTAGTTGAGA,0.3
25,TCCCTTCGAGTAAGAGAGA,0
26,TCCCATGGAGTAACAGAGA,0.233

row,Sequence,TetR repression strength
1,TCCCCTTCAGTCCTCGAGA,0.421
2,TCCCATGTAGTTGGCGAGA,0.217
3,TCCCGGGCAGTTTGAGAGA,0.23
4,TCCCGGCCAGTGCTTGAGA,0.406
5,TCCCGTGGAGTTGGAGAGA,0.27
6,TCCCCTGTAGTAGAAGAGA,0.263
7,TCCCTTACAGTGCCGGAGA,0.221
8,TCCCGCCGAGTAGGGGAGA,0.19
9,TCCCCGGGAGTTCCTGAGA,0.0921
10,TCCCGAGAAGTTCGAGAGA,0.243
11,TCCCGTTAAGTTGAGGAGA,0.105
12,TCCCGCAGAGTTCTCGAGA,0.0296
13,TCCCCAAAAGTGGTAGAGA,0.238
14,TCCCAGCGAGTACATGAGA,0.512
15,TCCCCGGAAGTGGCGGAGA,0.146
16,TCCCGGCTAGTGTGAGAGA,0.303
17,TCCCAACGAGTCGGCGAGA,0.234
18,TCCCGGATAGTATGGGAGA,0.06
19,TCCCGTTGAGTCGCGGAGA,0.256
20,TCCCTTGAAGTCTCTGAGA,0.252
21,TCCCGCTCAGTCAATGAGA,0.447
22,TCCCAGTAAGTGCTAGAGA,0.515
23,TCCCCTGAAGTTGAAGAGA,0.269
24,TCCCAAGTAGTTGTGGAGA,0.0698
25,TCCCAGATAGTTTTTGAGA,0.311
26,TCCCGGAAAGTAACTGAGA,0.0283

row,Sequence,TetR repression strength
1,TCCCAGTGAGTGCGCGAGA,0.286
2,TCCCCTATAGTCGTGGAGA,0.284
3,TCCCTACTAGTCAGGGAGA,0.14
4,TCCCGCTCAGTGGTGGAGA,0.176
5,TCCCACGTAGTAGTTGAGA,0.254
6,TCCCATGTAGTGGGGGAGA,0.189
7,TCCCTAGCAGTGGAAGAGA,0.457
8,TCCCAGGCAGTGTTAGAGA,0.14
9,TCCCAAGGAGTTGTGGAGA,0.302
10,TCCCAGAGAGTGCAAGAGA,0.468
11,TCCCAATGAGTTCGTGAGA,0
12,TCCCAATCAGTTCAGGAGA,0.288
13,TCCCACGCAGTAGGCGAGA,0.253
14,TCCCGTGGAGTCGGGGAGA,0.267
15,TCCCTAGTAGTAGGGGAGA,0.52
16,TCCCAATAAGTAATAGAGA,0.525
17,TCCCGTTAAGTCGCGGAGA,0.391
18,TCCCTGTTAGTAGAGGAGA,0.195
19,TCCCTTTAAGTTGTCGAGA,0.2
20,TCCCAGTCAGTTCCTGAGA,0.0212
21,TCCCTTATAGTAACCGAGA,0.194
22,TCCCGATTAGTTTGAGAGA,0.287
23,TCCCGGACAGTCGACGAGA,0.0556
24,TCCCACTAAGTTAGCGAGA,0.271
25,TCCCTATGAGTAGAGGAGA,0.118
26,TCCCGTTTAGTGTTTGAGA,0.0592

row,Sequence,TetR repression strength
1,TCCCACAGAGTTAATGAGA,0.19
2,TCCCTTATAGTGGCTGAGA,0.372
3,TCCCTGCTAGTTCGTGAGA,0.396
4,TCCCCCTAAGTAGCTGAGA,0.333
5,TCCCGACGAGTACGAGAGA,0.0802
6,TCCCGTGTAGTCATGGAGA,0.316
7,TCCCCGTGAGTGTGTGAGA,0.184
8,TCCCTGAAAGTGGTAGAGA,0.142
9,TCCCAAGAAGTTGGCGAGA,0.335
10,TCCCGAGGAGTGGGCGAGA,0.165
11,TCCCACTTAGTTTGGGAGA,0.212
12,TCCCGGACAGTTGTAGAGA,0.216
13,TCCCTTCAAGTTAGTGAGA,0.315
14,TCCCGGCTAGTTGGGGAGA,0.168
15,TCCCGGGAAGTAGTGGAGA,0.361
16,TCCCCTAAAGTCCTCGAGA,0.409
17,TCCCATCTAGTGTGTGAGA,0.253
18,TCCCTGATAGTAGTAGAGA,0.0256
19,TCCCTCGGAGTAAGTGAGA,0.228
20,TCCCACCAAGTCGAAGAGA,0.227
21,TCCCGTGTAGTTATGGAGA,0.138
22,TCCCAGCAAGTTAAGGAGA,0.173
23,TCCCAGACAGTATATGAGA,0.205
24,TCCCTCGAAGTCAATGAGA,0.24
25,TCCCAGCGAGTCTGAGAGA,0.281
26,TCCCACTTAGTATTTGAGA,0.207

row,Sequence,TetR repression strength
1,TCCCTTAAAGTATTAGAGA,0.252
2,TCCCGCAGAGTCACTGAGA,0.173
3,TCCCGTCCAGTGTCGGAGA,0.0239
4,TCCCCGGTAGTGGCCGAGA,0.201
5,TCCCTGGTAGTGGCAGAGA,0.136
6,TCCCGACTAGTGGCGGAGA,0.0984
7,TCCCGATAAGTGCCCGAGA,0.321
8,TCCCGAAGAGTGATCGAGA,0.262
9,TCCCGTATAGTGTTCGAGA,0.0287
10,TCCCGTCGAGTTGGCGAGA,0.3
11,TCCCAATGAGTGGGTGAGA,0.326
12,TCCCAACGAGTAGTAGAGA,0.306
13,TCCCAGTGAGTAGTGGAGA,0.173
14,TCCCGATCAGTGCATGAGA,0.353
15,TCCCAGCGAGTTCTGGAGA,0.222
16,TCCCGCACAGTTTGTGAGA,0.21
17,TCCCGTGAAGTGCTGGAGA,0.113
18,TCCCACGGAGTTGGAGAGA,0.023
19,TCCCTTGAAGTACGGGAGA,0.148
20,TCCCGGAGAGTGGAAGAGA,0.278
21,TCCCGGATAGTCGATGAGA,0.199
22,TCCCACAGAGTAGATGAGA,0.171
23,TCCCACCAAGTCAATGAGA,0.943
24,TCCCTGAAAGTGTTTGAGA,0.227
25,TCCCGGTGAGTGCTAGAGA,0.495
26,TCCCGGGGAGTGATCGAGA,0.28

row,Sequence,TetR repression strength
1,TCCCGGAGAGTATACGAGA,0.192
2,TCCCAGCGAGTTATGGAGA,0.0727
3,TCCCTAGGAGTTGGAGAGA,0.432
4,TCCCTTTGAGTACATGAGA,0.121
5,TCCCAATGAGTCCAGGAGA,0.25
6,TCCCTTTTAGTAGTGGAGA,0.167
7,TCCCCGACAGTAAATGAGA,0.178
8,TCCCGCACAGTCGGCGAGA,0.164
9,TCCCAACGAGTGTGAGAGA,0.318
10,TCCCCGCAAGTTAGAGAGA,0.198
11,TCCCACTAAGTTAAGGAGA,0.203
12,TCCCTTCCAGTCCTAGAGA,0.24
13,TCCCAAATAGTCGCGGAGA,0.285
14,TCCCGGGTAGTTCGTGAGA,0.0847
15,TCCCGCGCAGTTCACGAGA,0.218
16,TCCCGCCTAGTCCTAGAGA,0.647
17,TCCCTGTAAGTTAGGGAGA,0.191
18,TCCCGCATAGTTAAGGAGA,0.402
19,TCCCGATTAGTATTGGAGA,0.304
20,TCCCATATAGTAACGGAGA,0.276
21,TCCCCTTAAGTACGCGAGA,0.297
22,TCCCGACCAGTGACAGAGA,0.644
